Values joined by “and” are separate entries in the source; they are usually repeats but may differ in a detail not shown here. Identical values can stand only once. The whole screen tested about 360,000 compounds, of which about 2,600 (0.72%) were called active. The shares of active, inactive and inconclusive entries below differ from those in the screen. The call rests on the fitted dose curve; in most records, active means well fitted inhibition curve with a large enough effect; inconclusive means small, poorly fitted or top-dose-only effect; inactive means no such curve, though single readings can be large or run the other way. Potencies beside an inconclusive call are fits to weak or partial responses and may not hold up.
Test: Primary qHTS for Inhibitors of ATXN expression; further: nearly all actives have a fitted effect of over 55% in size
Settings: HEK-293 ATXN2-luciferase reporter, luminescence, 24 h; activity change, negative = inhibition: at 57 µM (top of the series)
In short: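 ATXN2-luciferase reporter cells (luciferase flanked by upstream and downstream ATXN2 gene portions) were treated 24 h at 37 °C with compounds at up to 57 uM. SteadyGlo luminescence gave expression; GF-AFC fluorescence gave viability.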
On the % scale 0 is the no-effect control and ±100 the full control effect; potency means the concentration at half of the fitted maximal effect; tags describe the fitted curve by direction and shape.

SMILES	Potency	activity change, negative = inhibition
CCCn1c(CCC(=O)Nc2ccc(C)c(Cl)c2)nc2cccnc21	inactive	–
CN(CC(=O)Nc1ccc(OC(F)(F)F)cc1)C1CCCCC1	inactive	–
Cn1c2ccccc2c2ccc3c(c21)C(=O)C=CC3=O	inconclusive: 8.44 µM [inhibitor, partial curve, poor fit]	–
CCCCCC(=O)N1C[C@H](n2cc(COC(=O)c3ccccc3)nn2)[C@@H](O)C[C@@H]1c1ccc(Cl)cc1	inconclusive: 39.8 µM [inhibitor, single point]	–
Cc1ccc(Cn2ncc3c(NN)ncnc32)cc1	inconclusive: 37.7 µM [inhibitor, single point]	–
COCCn1c(C)cc(C(=O)COC(=O)c2n[nH]c3ccccc23)c1C	inconclusive: 17.8 µM [inhibitor, single point]	–
Cc1ccc(C(=O)N(c2ccc(C)cc2)S(=O)(=O)c2ccc(Cl)cc2)cc1	inconclusive: 28.2 µM [inhibitor, single point]	–
CC(=O)c1ccc(NC(=O)C(C)O/N=C(\N)c2ccccc2)cc1 (stereo not drawn)	inactive	–
O=C1NC[C@H](c2ccccc2)OC(=O)[C@@H](Cc2ccc(F)cc2)C/C=C\C[C@H]1CC(=O)N(CCO)Cc1ccccc1	inactive	–
COc1ccc2c(c1)CC/C(=C\C=C\c1ccccc1)C2=O	inactive	–
CN1CCN(c2nc(-c3ccncc3)nc3ccccc23)CC1	inconclusive: 12.6 µM [inhibitor, partial curve, poor fit]	–
Cc1cccc(C(=O)OCC(=O)N(C)CC(=O)Nc2ccc(Cl)c(C(F)(F)F)c2)c1	inconclusive: 20 µM [inhibitor, partial curve, poor fit]	–
CC(=O)N(C1=C(Cl)C(=O)c2ccccc2C1=O)c1ccc(C(=O)O)cc1	–	inconclusive: -77.3% [inhibitor]
O=C(NCCOCCn1c(=O)oc2ccccc21)Nc1cccc(Cl)c1	inconclusive: 7.94 µM [inhibitor, partial curve, poor fit]	–
CC(C)c1ccc2oc(=O)cc(CN3CCCCC3)c2c1	inactive	–
CSc1cccc(NC(=S)N(CCCN2CCCC(C)C2)Cc2cccs2)c1 (stereo not drawn)	–	inactive: -1.66% [at 11.3 µM]
Cc1nc2c(O)c3c(c(O)c2nc1C)C1C=CC3CC1	active: 28.2 µM	–
CCCCCn1c2c(c(=N)c3ccccc31)CCC2	inconclusive: 3.16 µM [inhibitor, partial curve, poor fit]	–
O=C(Cn1c(SCC(=O)Nc2ccc(F)cc2)nc2ccccc21)NCc1ccccc1Cl	inconclusive: 31.6 µM [inhibitor, single point]	–
CC(=O)C1=C(C)NC2(O)c3ccccc3C(=O)C12O (stereo not drawn)	inconclusive: 0.267 µM [inhibitor, full curve, poor fit]	–
CCOC(=O)C1=CCN(S(=O)(=O)c2ccccc2C)C1c1ccc(Cl)cc1 (stereo not drawn)	inconclusive: 11.2 µM [inhibitor, partial curve]	–
COc1ccccc1NC(=O)C(Cc1ccccc1)NS(=O)(=O)c1cccc2nsnc12 (stereo not drawn)	inactive	–

SMILES	Potency	activity change, negative = inhibition
N=c1c2c(-c3ccccc3)c(-c3ccccc3)oc2ncn1CCCN1CCOCC1	inconclusive: 39.8 µM [inhibitor, partial curve, poor fit]	–
O=C(Cn1c(=O)cnc2ccccc21)N1CCN(S(=O)(=O)c2ccccc2Br)CC1	inactive	–
CS(=O)(=O)c1ccc(-c2sc3ccccc3c2C#CCCO)cc1	inconclusive: 35.5 µM [inhibitor, single point]	–
NC(=O)CC(NC(=O)Cc1ccc(Br)cc1)c1ccc(N2CCN(c3ccccn3)CC2)c([N+](=O)[O-])c1 (stereo not drawn)	inconclusive: 39.8 µM [inhibitor, single point]	–
O=C(NC(c1ccc(-c2ccccc2)cc1)c1cnccn1)C1CCN(Cc2ccc3c(c2)OCO3)CC1 (stereo not drawn)	inconclusive: 39.8 µM [inhibitor, single point]	–
CCn1c(SCc2nc3ccccc3c(=O)[nH]2)nc2ccccc21	inactive	–
Nc1nc(SCC(=O)NC2CCCc3ccccc32)n[nH]1 (stereo not drawn)	inactive	–
Cc1ccc(NC(=O)CSc2ccc(-c3ccccn3)nn2)cc1F	inconclusive: 39.8 µM [inhibitor, single point] and inconclusive: 12.6 µM [inhibitor, partial curve, poor fit]	–
O=C(N/N=C/c1ccccn1)c1cc(-c2ccncc2)nc2ccccc12	inconclusive: 39.8 µM [inhibitor, single point]	–
CCCCCCc1cc2cc(-c3nnc(-c4ccccc4O)o3)c(=O)oc2cc1O	inconclusive: 39.8 µM [inhibitor, single point]	–
CN1CCN(c2nc(Nc3ccc(F)cc3)nc(Nc3ccc(F)cc3)n2)CC1	active: 25.1 µM	–
COc1cc(C)c(C=CC(C)=CC=CC(C)=CC(=O)O)c(C)c1C	inconclusive: 34.3 µM [inhibitor, single point]	–
CCOc1ccc2nc(N3CCCC(C(=O)NCCCN4CC(C)CC(C)C4)C3)sc2c1 (stereo not drawn)	inactive	–
CSc1nn(Cc2cccc(Cl)c2)c(N(C(C)=O)C(C)=O)c1S(=O)(=O)c1ccccc1	inconclusive: 39.8 µM [inhibitor, single point]	–
NC(Cc1ccccc1)c1csc(Nc2ccc(C(=O)c3ccccc3)cc2)n1 (stereo not drawn)	inconclusive: 8.91 µM [inhibitor, partial curve, poor fit]	–
O=C(Nc1ccc2nc3n(c(=O)c2c1)CCCCC3)c1c(F)ccc([N+](=O)[O-])c1F	active: 7.08 µM	–
CCOc1ccc2nc(C)cc(Nc3cccc([N+](=O)[O-])c3)c2c1	active: 28.2 µM	–
COc1ccc2nc(NC(=O)c3cccs3)sc2c1	inconclusive: 39.8 µM [inhibitor, single point]	–
COc1ccc(S(=O)(=O)Nc2ccc(O)c3ccccc23)cc1	inconclusive: 25.1 µM [inhibitor, single point]	–
Oc1cc(-c2cccnc2)cc2cccnc12	inconclusive: 6.31 µM [inhibitor, single point]	–
O=C(Nc1ccc2nc(SCCOc3ccccc3Cl)sc2c1)c1ccc2c(c1)OCO2	inactive	–

From PubChem BioAssay AID1745845 (National Center for Advancing Translational Sciences (NCATS), 2022)
